# Whole data set: some 81,000 sequences, median “one-hybrid fitness for binding NBS DNA” near -0.1, cut for the highest 2% near 0.36. The list shows a part of the results.
# B1: Caulobacter ParB omega fusion; a variant is named by its letters at X, in order, B8GW30 (parent)
# chain: MESVVVGEPGMSEGRRGLGRGLSALLGEVDAAPAQAPGEQLGGSREAPIEILQRNPDQPRRTFREEDLEDLSNSIREKGVLQPILVRPSPDTAGEYQIVAGERAWRAAQRAGLKTVPIMVRELDDLAVLEIGIIENVQRADLNVLEEALSYKVLMEKFERTQENIAQTIGKSXSHVANXMRLLXLPDEVQSYLVSGELTAXHARAIAAAADPVALAKQIIEGGLSVRETEALARKAPNLSAGKSKGGRPPRVKDTDTQALESDLSSVLGLDVSIDHRGSTGTLTITYATLEQLDDLCNRLTRGI
# Variants of: B1
# Test: one-hybrid fitness for binding NBS DNA (the Noc-binding site; scaled: cognate 1, non-cognate 0); higher = stronger binding
# Details: with NBS DNA site
# Summary of the method: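 In E. coli USO, a HIS3 reporter with its site placed 19 bp from the promoter was used to select Caulobacter ParB variants randomised at four specificity codons. Growth lasted 48 hours at 37°C on histidine-free M9 containing 0.1 mM IPTG and 5 mM 3-AT. Fitness was taken as the log change in variant-to-wild-type read ratio from Illumina sequencing of pre- and post-selection plasmids, rescaled between the non-cognate and cognate sites.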
row,Variant,one-hybrid fitness for binding NBS DNA
1,NYNT,≤ 0.2
2,DDRY,≤ 0.2
3,MCKR,≤ 0.2
4,TKPR,≤ 0.2
5,DKQI,≤ 0.2
6,PACS,≤ 0.2
7,CMNP,≤ 0.2
8,QKGI,≤ 0.2
9,DYGT,≤ 0.2
10,LMTQ,≤ 0.2
11,RSNS,0.508
12,FDKR,≤ 0.2
13,GIEL,≤ 0.2
14,SAVY,≤ 0.2
15,TLIG,≤ 0.2
16,WQQR,≤ 0.2
17,QTKD,0.398
18,TCHV,≤ 0.2
19,APYH,≤ 0.2
20,DHTG,≤ 0.2
21,TSSD,≤ 0.2

row,Variant,one-hybrid fitness for binding NBS DNA
1,GPTR,≤ 0.2
2,MQVH,≤ 0.2
3,RFGW,≤ 0.2
4,SRTG,≤ 0.2
5,HSCW,≤ 0.2
6,DVDT,≤ 0.2
7,VKRT,≤ 0.2
8,DIGG,0.262
9,SGQG,≤ 0.2
10,HDLD,≤ 0.2
11,TPMV,≤ 0.2
12,DYWS,≤ 0.2
13,VKHD,≤ 0.2
14,QTEW,≤ 0.2
15,IWAS,≤ 0.2
16,RQPG,≤ 0.2
17,SPRW,≤ 0.2
18,TREP,≤ 0.2
19,APLV,≤ 0.2
20,CQTP,≤ 0.2
21,NGVL,≤ 0.2

row,Variant,one-hybrid fitness for binding NBS DNA
1,WQDG,≤ 0.2
2,ADNQ,≤ 0.2
3,QPFT,≤ 0.2
4,GGHV,≤ 0.2
5,TGHT,≤ 0.2
6,CIEL,≤ 0.2
7,KSHI,≤ 0.2
8,APRC,≤ 0.2
9,CFTY,≤ 0.2
10,WSRY,≤ 0.2
11,EPQG,≤ 0.2
12,KKMS,≤ 0.2
13,FDRF,≤ 0.2
14,RCHI,≤ 0.2
15,RHWP,≤ 0.2
16,TIDC,≤ 0.2
17,TPAT,≤ 0.2
18,GGVS,≤ 0.2
19,SGSW,≤ 0.2
20,NHMG,≤ 0.2
21,CPQS,≤ 0.2

row,Variant,one-hybrid fitness for binding NBS DNA
1,RHGC,≤ 0.2
2,WVIS,≤ 0.2
3,GHGR,≤ 0.2
4,RGAQ,≤ 0.2
5,NPRH,≤ 0.2
6,PMKI,≤ 0.2
7,KLHK,≤ 0.2
8,MCWG,≤ 0.2
9,EGKC,≤ 0.2
10,RRMH,0.403
11,QNMS,≤ 0.2
12,NESR,≤ 0.2
13,QTHF,≤ 0.2
14,YRKK,≤ 0.2
15,GALN,≤ 0.2
16,FMIR,≤ 0.2
17,HLRY,≤ 0.2
18,EGPF,≤ 0.2
19,FFVS,≤ 0.2
20,ISEC,≤ 0.2
21,ESRA,≤ 0.2
